Hit rate of the full screen: of about 44,000 compounds, about 340 (0.77%) were called active. Roughly 5% stayed inconclusive and do not appear here. Calls come from the whole dose curve; as a rule, active = well fitted inhibition curve with a large enough effect; inconclusive = small, poorly fitted or top-dose-only effect; inactive = flat fitted curve, though single readings scatter. The list shows a part of the results.
Assay: Acumen qHTS Assay for Inhibitors of the mTORC1 Signaling Pathway in MEF (Tsc2-/-, p53-/-) Cells: Sytravon;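 note: plate controls were DMSO for no effect and rapamycin for full effect; nearly all actives have a fitted effect of over 50% in size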
Conditions: phospho-rpS6 immunofluorescence/PI, 24 h; series mostly up to 38.3 µM; activity change, negative = inhibition: at the top concentration
How it was run: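 Compounds act on Tsc2-/-, p53-/- fibroblasts carrying an empty vector for 24 h before fixation and dual staining for phospho-S6 and DNA (propidium iodide). Values are percentages of cells above a rapamycin-defined pS6/PI threshold.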

Activity change, negative = inhibition, inactive:
COc1ccc(-c2cc(C(F)(F)F)nc(NCc3ccccc3)n2)cc1OC -1.13%, COc1cccc(CN2c3ccccc3-c3nc(SCC(=O)Nc4cccc(C)c4)ncc3S2(=O)=O)c1 7.5%, CCOc1ccc(NCc2cccn2-c2nnc(N3CCC(C(=O)NC(C)c4ccccc4)CC3)s2)cc1 (stereo not given) -0.246%, O=C1C(=O)N(C2CCN(C(=O)c3ccc(F)cc3)CC2)CCN1Cc1ccc(F)cc1 4.96%, CC1CCc2c(sc3nnn(CC(=O)Nc4cccc(C(F)(F)F)c4)c(=O)c23)C1 (stereo not given) -4.1%, CCc1nnc2c3ccccc3nc(Nc3ccc(F)cc3C)n12 4.82%, CCN1C(C(=O)c2ccccc2)=C(OC(=O)c2ccc(Cl)cc2)c2ccccc2S1(=O)=O 5.51%, Cc1cccc(OC(C)C(=O)N2CCC(c3nc4ccccc4o3)CC2)c1C (stereo not given) 2.78%, CCc1ccc2oc(-c3cccc(NC(=O)c4ccc(-c5cccc([N+](=O)[O-])c5)o4)c3)nc2c1 -8.33%, CCOc1ccc(Br)cc1C1C(C(=O)Nc2ccccc2OC)=C(C)Nc2nnnn21 (stereo not given) -17%, CC(=O)N1c2ccc(S(=O)(=O)NCCc3cccc(C)c3)cc2CC1C (stereo not given) -7.5%, Cc1oc(-c2ccc(C(=O)N(C)Cc3ccccc3)cc2)nc1CN1CCc2ccccc21 -15.6%, CCOC(=O)c1cccc(NC(=O)N2Cc3ccccc3Oc3ncccc32)c1 -1.64%, COc1ccc(-n2c(=O)c3c4c(sc3n(Cc3ccccc3)c2=O)CCC4)c(OC)c1 -3.52%, CCOC(=O)c1ccc(-c2ccc(/C=C(\C#N)C(=O)Nc3cccc(C)c3)o2)cc1 -7.37%, Cc1ccc(NC(=O)CC2Sc3ccccc3NC2=O)c(C)c1 (stereo not given) 12.2%, CCN(C(=O)c1cc(S(=O)(=O)N2CCCCC2)c[nH]1)c1ccc(OC)cc1 0.497%, C=Cc1ccc(CSc2nc(-c3ccc(Cl)cc3)nc3c2Cc2c(CO)cnc(C)c2O3)cc1 1.69%, Cn1c(NCc2ccccc2F)nc2ccccc21 0.0941%, COc1cc(Cl)c(C)cc1NC(=O)CSCc1nc(-c2ccc(OC)c(OC)c2)no1 -14%, Cc1ccc(C)c(Cn2cc(CCC(=O)NC3CCCCC3)c3ccccc32)c1 5.57%, Cc1cccc(C)c1NC(=O)C1CCN(S(=O)(=O)c2cccc3nsnc23)CC1 1.82%, COc1ccc(-c2nc(SCC(=O)NC3CCCC3)c(-c3ccccc3)[nH]2)cc1OC -4.25%, CCOC(=O)C1CCN(C(=O)c2ccc3c(c2)sc2nc(-c4ccc(OCC)cc4)cn23)CC1 0.205%, Cc1ccc(NC(=O)Cn2ccn(Cc3ccc(Cl)cc3)c(=O)c2=O)cc1C -8.02%, CC(=O)c1cccc(-n2c(CCC(=O)O)ccc2-c2ccccc2)c1 -17.8%, COc1ccc(OC)c(Nc2cc(C(=O)NCc3ccccc3)c3ccccc3n2)c1 -6.29%, Cc1ccc(-n2ncc3c(Nc4ccc5c(c4)OCCO5)ncnc32)cc1C 2.68%, CCOc1ccccc1C(=O)N1CCc2cc(OC)c(OC)cc2C1COc1ccc2c(C)cc(=O)oc2c1 (stereo not given) -2.81%, COc1ccc(CNC(=O)c2cnn(-c3ccc(C)cc3)c2C2CCN(C(=O)OC(C)(C)C)CC2)cc1 -2.96%, CCOc1ccc(NC(=O)NC(CC)Cn2nnc3ccccc3c2=O)cc1 (stereo not given) -18.4%, Cc1ccc(OCCSc2nc3ccccc3n2CCC(=O)O)cc1C 3.71%, COc1ccc(/C=C(\NC(=O)c2ccccc2)C(=O)NC2CCCCC2)cc1 -3%, CCN1CCN(C(c2ccc(Cl)cc2)c2c(O)cc(C)n(CCOC)c2=O)CC1 (stereo not given) 3.49%, O=C(CSc1ncc(S(=O)(=O)c2ccc(Br)cc2)c(=O)[nH]1)NCc1ccccc1Cl -0.549%, COc1ccc(-c2cc(C(=O)Oc3ccc(Cl)cc3)c3ccccc3n2)cc1 7.43%, Cc1cc(C)cc(N(CC(=O)Nc2ccc(C(F)(F)F)cc2)S(=O)(=O)c2c(C)[nH]c(=O)[nH]c2=O)c1 -12.1%, CCCCn1cnc2cc(NC(=O)c3cc(OC)c(OC)c(OC)c3)ccc21 3.37%, COc1ccccc1C(=O)N1CCC(c2c[nH]c3ccccc23)(c2c[nH]c3ccccc23)CC1 -8.32%, O=C(CSc1nc(-c2ccccc2)[nH]c1-c1ccc(F)cc1)NC1CCCC1 -2.72%, CCC(=O)N1CCc2cc(S(=O)(=O)NC(Cc3ccccc3)C(=O)Nc3ccc(Cl)cc3)ccc21 (stereo not given) 0.181%, COc1ccc(CCNC(=O)c2cc3cccc4c3n2CC(C)S4)c(OC)c1OC (stereo not given) -6.36%, CCCC(=O)Nc1c(C(=O)N2CCN(c3ccccc3)CC2)oc2ccccc12 -2.92%, CC(C)c1ccc(S(=O)(=O)Nc2cc3c(cc2NCc2ccccc2)n(C)c(=O)n3C)cc1 -10.8%, COc1ccccc1C(=O)CC1(O)C(=O)N(CC(N)=O)c2ccccc21 (stereo not given) 13.5%, CCc1ccccc1NC(=O)C1=CC(c2ccc3c(c2)OCO3)=NS(=O)(=O)N1C -2.5%, CCOc1ccccc1NC(=O)Cn1c(=O)n(Cc2ccco2)c(=O)c2cccnc21 0.378%, CC(C)(C)c1ccc(C(=O)Nc2ccc3nc(SCC(=O)N4CCCC4)sc3c2)cc1 -25.6%, CC(C)(C)OC(=O)N1CCC(c2c(C(=O)O)cnn2-c2ccc(F)cc2F)CC1 -5.48%, O=C(CN1C(=O)COc2ccc(S(=O)(=O)N3CCCCCC3)cc21)N1CCN(c2cccc(Cl)c2)CC1 -5.39%, COc1ccc(C(=O)c2cn(Cc3ccc(F)cc3)c3c(F)cc(F)cc3c2=O)cc1 2.82%, Fc1ccc(-c2nnc(CN3CCN(c4ccccn4)CC3)o2)cc1 1.63%, O=C(C1COc2cc(S(=O)(=O)Nc3ccc(Cl)cc3)ccc2O1)N1CCCC1 (stereo not given) 0.696%, CCc1ccccc1N(C)C(=O)c1cc2c(s1)-c1c(C)cccc1OC2 -7.49%, Cc1ccc(Cn2c(C)c(CNCc3ccccc3F)c(C(=O)O)c2C)cc1 -0.179%, CC(C)NS(=O)(=O)c1ccc(OCC(=O)N2CCN(c3cccc(Cl)c3)CC2)cc1 1.1%, COc1cc(C2C(C(=O)Nc3ccccc3)=C(C)Nc3nc(SCC(=O)c4ccc(C)cc4)nn32)ccc1O (stereo not given) -3.91%, O=C(Cn1ncc2c3ccccc3n(Cc3ccccc3)c2c1=O)NCc1ccccc1 3.9%, COC(=O)c1c(NC(=O)CCCOc2cccc(C)c2)sc2c1CCC(C)C2 (stereo not given) -5.4%, CCc1ccc(S(=O)(=O)c2nnn3c2nc(N2CCN(CC)CC2)c2sccc23)cc1 2.88%, COc1ccccc1C(=O)Nc1ccc(-c2nc3cc(C)cc(C)c3o2)cc1 6.75%, CCOC(=O)c1ccc(N2C(=O)c3n[nH]c(-c4ccco4)c3C2c2cccc(F)c2)cc1 (stereo not given) -15.4%, Cc1ccc(NC(=O)CSc2nc3ccc(NC(=O)c4cccc(Cl)c4)cc3s2)c(C)c1 -0.955%, Cc1ccc(CN(Cc2cccn2-c2nnc(N3CCCC3=O)s2)C(=O)Nc2cc(C)cc(C)c2)cc1 -7.47%, O=C(C1CCCN(S(=O)(=O)c2cccs2)C1)N1CCN(c2ccccc2F)CC1 (stereo not given) -28.9%, CN1C(=O)c2ccccc2Sc2ccc(NC(=O)NCc3ccccc3Br)cc21 -5.14%, Cc1nc2sc(C)c(C)n2c(=O)c1S(=O)(=O)NCCc1ccc(Cl)cc1 -2.55%, COc1ccc(-c2nc3c(c(SCC(=O)Nc4cc(C)cc(C)c4)n2)Cc2c(CO)cnc(C)c2O3)cc1 -5.97%, COc1cccc(CN2C(=O)C3(SCC(=O)N3c3ccc(F)cc3)c3ccccc32)c1 (stereo not given) -4.66%, Cc1ccc(CN(Cc2ccco2)C(=O)c2ccccc2Cl)o1 2.2%, O=C(NCc1cccc(Cl)c1)c1ccc2c(c1)nc1n2CCOC1 -0.306%, CC(=O)c1ccc(NC(=O)c2cn(C)c(=O)c3ccccc23)cc1 7.18%, Cc1cccc(N2CCN(C(=O)CCNS(=O)(=O)c3ccc4c(c3)CCN4C(=O)C3CC3)CC2C)c1 (stereo not given) 0.889%, O=C(NC1CC(=O)N(c2ccccc2)C1)c1cccs1 (stereo not given) -4.98%, Cc1cccc(C(=O)Nc2nc3c(s2)CCCC3)c1 -4.98%, COc1ccc(-c2nc(CCNC(=O)Cc3ccc(F)cc3)cs2)cc1 -0.289%, CCOC(=O)N1CCc2c(sc3c2c(=O)n(CCc2ccccc2)c(=O)n3Cc2ccc(C)cc2C)C1 3.06%, CSc1ccc(CCNC(=O)c2ccc3c(c2)nc2n3CCC(C)C2)cc1 (stereo not given) 8.09%, CCOCCc1nn2c(=O)cc(COC(=O)c3ccccc3NC(=O)c3cccs3)nc2s1 0%, COc1cc(OC)c(NC(=O)CSc2nccn2C)cc1Cl 7.36%, COc1ccc2oc(-c3ccc(C)c(NC(=O)c4cccnc4)c3)nc2c1 -0.225%, Cc1ccc(CNC(=O)c2ccc(-n3c(C)cc4c3CCCC4)cc2)cc1 -14.5%, CC1CCN(c2oc(-c3cccs3)nc2S(=O)(=O)c2ccc(Cl)cc2)CC1 0.543%, Cc1ccc(OCC(=O)Nc2ccc3nc(SCC(=O)N4CCCC4)sc3c2)cc1 -12.2%, O=C(CSc1nc2cc(C(=O)NC3CCCC3)ccc2c(=O)n1CC1CCCO1)c1ccc(F)cc1 (stereo not given) -16.7%, CNC(=O)c1ccc2c(c1)N=C(C)c1cc(C)ccc1S2 -27.1%, Cc1ccc(C)c(S(=O)(=O)c2cn(Cc3ccccc3)c3cc(F)c(F)cc3c2=O)c1 -9.25%, CCOC(=O)c1c(SCC(=O)Nc2nc3ccc(C)cc3s2)nc(=O)[nH]c1C -2.17%, Cc1cccc(CSc2cn(CC(=O)N3CCCCC3)c3ccccc23)c1 -17.8%, Cc1cc(C)c2sc(N(Cc3cccnc3)C(=O)CCS(=O)(=O)c3ccccc3)nc2c1 -9.75%, CC(C)(C)C1CCc2oc3ccc(NS(=O)(=O)c4cc(Cl)ccc4Cl)cc3c2C1 (stereo not given) -12.3%, O=C(Cn1cc(SCc2cccc(F)c2)c2ccccc21)N1CCOCC1 0.0604%, O=C(c1cc(-c2ccc(Br)cc2)n[nH]1)N1CCN(S(=O)(=O)c2ccc(Br)cc2)CC1 -0.436%, CCC(=O)N1N=C(c2ccc(OC)cc2)CC1c1cn(-c2ccccc2)nc1-c1cccs1 (stereo not given) 5.42%, CCOc1ccc(N(c2nc(-c3ccc(OC)c(OC)c3)no2)c2nc(-c3ccc(OC)c(OC)c3)no2)cc1 -0.957%

— PubChem BioAssay AID493208 (National Center for Advancing Translational Sciences (NCATS), 2011)
